T1: Fc (kih)-IFNGR1/2 heterodimer (P1AF8126) (UniProt P15260 18-245; P38484 28-247, limits assumed)
T1 construct: Used as the soluble analyte in SPR; also called Fc (kih)-IFNGR1/R2 heterodimer; IFNGR1/R2; not shown: Fc (kih) chain
T1 sequence (looked up) 1: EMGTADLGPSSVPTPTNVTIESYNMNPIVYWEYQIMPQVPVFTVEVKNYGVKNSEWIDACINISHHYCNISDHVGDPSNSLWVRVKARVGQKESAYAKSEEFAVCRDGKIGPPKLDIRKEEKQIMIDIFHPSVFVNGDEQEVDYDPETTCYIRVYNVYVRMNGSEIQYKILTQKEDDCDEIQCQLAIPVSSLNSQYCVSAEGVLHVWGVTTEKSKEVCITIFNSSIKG
T1 sequence (looked up) 2: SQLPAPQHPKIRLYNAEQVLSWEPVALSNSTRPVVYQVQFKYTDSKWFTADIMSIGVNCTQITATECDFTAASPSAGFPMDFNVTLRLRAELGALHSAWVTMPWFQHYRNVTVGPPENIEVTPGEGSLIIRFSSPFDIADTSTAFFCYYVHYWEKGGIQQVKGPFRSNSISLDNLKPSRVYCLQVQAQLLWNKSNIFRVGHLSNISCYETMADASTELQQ

T2: Fc (kih)-IFNGR1 monomer (P1AF7104) (UniProt P15260 18-245)
T2 construct: Used as the soluble analyte in SPR; not shown: Fc (kih) part
T2 sequence (P15260 whole entry, species assumed, looked up): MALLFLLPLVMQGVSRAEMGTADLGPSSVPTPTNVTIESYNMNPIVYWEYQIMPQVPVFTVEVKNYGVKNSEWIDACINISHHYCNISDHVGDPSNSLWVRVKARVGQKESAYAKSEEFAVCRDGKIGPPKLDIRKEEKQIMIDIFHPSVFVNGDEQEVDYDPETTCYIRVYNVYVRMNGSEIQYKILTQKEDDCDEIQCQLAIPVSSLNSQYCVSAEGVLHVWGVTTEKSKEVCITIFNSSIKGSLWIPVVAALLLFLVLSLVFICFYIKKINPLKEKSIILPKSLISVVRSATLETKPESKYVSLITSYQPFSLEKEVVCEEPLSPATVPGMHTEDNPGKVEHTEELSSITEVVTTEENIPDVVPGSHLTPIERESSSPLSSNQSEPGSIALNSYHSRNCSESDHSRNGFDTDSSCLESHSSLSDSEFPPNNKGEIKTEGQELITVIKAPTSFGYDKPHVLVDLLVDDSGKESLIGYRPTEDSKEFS

B1: P1AF9479 (anti-FAP 4B9 IgG-IFNG, C-terminus AKTGPPKRP) (other)
heavy: EVQLLESGGGLVQPGGSLRLSCAASGFTFSSYAMSWVRQAPGKGLEWVSAIIGSGASTYYADSVKGRFTISRDNSKNTLYLQMNSLRAEDTAVYYCAKGWFGGFNYWGQGTLVTVSSASTKGPSVFPLAPSSKSTSGGTAALGCLVKDYFPEPVTVSWNSGALTSGVHTFPAVLQSSGLYSLSSVVTVPSSSLGTQTYICNVNHKPSNTKVDKKV[human IgG1 Fc with changes skipped]GGGGSGGGGSGGGGSQDPYVKEAENLKKYFNAGHSDVADNGTLFLGILKNWKEESDRKIMQSQIVSFYFKLFKNFKDDQSIQKSVETIKEDMNVKFFNSNKKKRDDFEKLTNYSVTDLNVQRKAIHELIQVMAELSPAAKTGPPKRP
light: EIVLTQSPGTLSLSPGERATLSCRASQSVTSSYLAWYQQKPGQAPRLLINVGSRRATGIPDRFSGSGSGTDFTLTISRLEPEDFAVYYCQQGIMLPPTFGQGTKVEIKRTVAAPSVFIFPPSDEQLKSGTASVVCLLNNFYPREAKVQWKVDNALQSGNSQESVTEQDSKDSTYSLSSTLTLSKADYEKHKVYACEVTHQGLSSPVTKSFNRGEC
notes: Antibody-cytokine fusion, IgG1 P329G LALA, (G4S)3 linker; P in positions 1 and 2 of KRKR
B2: P1AF9480 (anti-FAP 4B9 IgG-IFNG, C-terminus AKTGKRPPP) (other)
heavy: EVQLLESGGGLVQPGGSLRLSCAASGFTFSSYAMSWVRQAPGKGLEWVSAIIGSGASTYYADSVKGRFTISRDNSKNTLYLQMNSLRAEDTAVYYCAKGWFGGFNYWGQGTLVTVSSASTKGPSVFPLAPSSKSTSGGTAALGCLVKDYFPEPVTVSWNSGALTSGVHTFPAVLQSSGLYSLSSVVTVPSSSLGTQTYICNVNHKPSNTKVDKKV[human IgG1 Fc with changes skipped]GGGGSGGGGSGGGGSQDPYVKEAENLKKYFNAGHSDVADNGTLFLGILKNWKEESDRKIMQSQIVSFYFKLFKNFKDDQSIQKSVETIKEDMNVKFFNSNKKKRDDFEKLTNYSVTDLNVQRKAIHELIQVMAELSPAAKTGKRPPP
light: B1 light
notes: Antibody-cytokine fusion, IgG1 P329G LALA, (G4S)3 linker; P in positions 3 and 4 of KRKR
B3: P1AF9481 (anti-FAP 4B9 IgG-IFNG, C-terminus AKTGPRPRP) (other)
heavy: EVQLLESGGGLVQPGGSLRLSCAASGFTFSSYAMSWVRQAPGKGLEWVSAIIGSGASTYYADSVKGRFTISRDNSKNTLYLQMNSLRAEDTAVYYCAKGWFGGFNYWGQGTLVTVSSASTKGPSVFPLAPSSKSTSGGTAALGCLVKDYFPEPVTVSWNSGALTSGVHTFPAVLQSSGLYSLSSVVTVPSSSLGTQTYICNVNHKPSNTKVDKKV[human IgG1 Fc with changes skipped]GGGGSGGGGSGGGGSQDPYVKEAENLKKYFNAGHSDVADNGTLFLGILKNWKEESDRKIMQSQIVSFYFKLFKNFKDDQSIQKSVETIKEDMNVKFFNSNKKKRDDFEKLTNYSVTDLNVQRKAIHELIQVMAELSPAAKTGPRPRP
light: B1 light
notes: Antibody-cytokine fusion, IgG1 P329G LALA, (G4S)3 linker; P in positions 1 and 3 of KRKR
B4: P1AF9482 (anti-FAP 4B9 IgG-IFNG, C-terminus AKTGKPKPP) (other)
heavy: EVQLLESGGGLVQPGGSLRLSCAASGFTFSSYAMSWVRQAPGKGLEWVSAIIGSGASTYYADSVKGRFTISRDNSKNTLYLQMNSLRAEDTAVYYCAKGWFGGFNYWGQGTLVTVSSASTKGPSVFPLAPSSKSTSGGTAALGCLVKDYFPEPVTVSWNSGALTSGVHTFPAVLQSSGLYSLSSVVTVPSSSLGTQTYICNVNHKPSNTKVDKKV[human IgG1 Fc with changes skipped]GGGGSGGGGSGGGGSQDPYVKEAENLKKYFNAGHSDVADNGTLFLGILKNWKEESDRKIMQSQIVSFYFKLFKNFKDDQSIQKSVETIKEDMNVKFFNSNKKKRDDFEKLTNYSVTDLNVQRKAIHELIQVMAELSPAAKTGKPKPP
light: B1 light
notes: Antibody-cytokine fusion, IgG1 P329G LALA, (G4S)3 linker; P in positions 2 and 4 of KRKR
B5: P1AF9483 (anti-FAP 4B9 IgG-IFNG, C-terminus AKTGERKRP) (other)
heavy: EVQLLESGGGLVQPGGSLRLSCAASGFTFSSYAMSWVRQAPGKGLEWVSAIIGSGASTYYADSVKGRFTISRDNSKNTLYLQMNSLRAEDTAVYYCAKGWFGGFNYWGQGTLVTVSSASTKGPSVFPLAPSSKSTSGGTAALGCLVKDYFPEPVTVSWNSGALTSGVHTFPAVLQSSGLYSLSSVVTVPSSSLGTQTYICNVNHKPSNTKVDKKV[human IgG1 Fc with changes skipped]GGGGSGGGGSGGGGSQDPYVKEAENLKKYFNAGHSDVADNGTLFLGILKNWKEESDRKIMQSQIVSFYFKLFKNFKDDQSIQKSVETIKEDMNVKFFNSNKKKRDDFEKLTNYSVTDLNVQRKAIHELIQVMAELSPAAKTGERKRP
light: B1 light
notes: Antibody-cytokine fusion, IgG1 P329G LALA, (G4S)3 linker; E in position 1 of KRKR
B6: P1AF9484 (anti-FAP 4B9 IgG-IFNG, C-terminus AKTGKEKRP) (other)
heavy: EVQLLESGGGLVQPGGSLRLSCAASGFTFSSYAMSWVRQAPGKGLEWVSAIIGSGASTYYADSVKGRFTISRDNSKNTLYLQMNSLRAEDTAVYYCAKGWFGGFNYWGQGTLVTVSSASTKGPSVFPLAPSSKSTSGGTAALGCLVKDYFPEPVTVSWNSGALTSGVHTFPAVLQSSGLYSLSSVVTVPSSSLGTQTYICNVNHKPSNTKVDKKV[human IgG1 Fc with changes skipped]GGGGSGGGGSGGGGSQDPYVKEAENLKKYFNAGHSDVADNGTLFLGILKNWKEESDRKIMQSQIVSFYFKLFKNFKDDQSIQKSVETIKEDMNVKFFNSNKKKRDDFEKLTNYSVTDLNVQRKAIHELIQVMAELSPAAKTGKEKRP
light: B1 light
notes: Antibody-cytokine fusion, IgG1 P329G LALA, (G4S)3 linker; E in position 2 of KRKR

These binders were tested against T1, Fc (kih)-IFNGR1/2 heterodimer (P1AF8126) (assay: SPR, compound immobilised, Fc(kih)-IFNGR1/2 heterodimer as analyte; apparent affinity).
Procedure: (§1) The binding behaviour of IFNG variants towards IFNGR1 and IFNGR1/2 was assessed by surface plasmon resonance (SPR). SPR experiments were performed on a Biacore 8K device at 25° C. with HBS-EP as running buffer (0.01 M HEPES pH 7.4, 0.15 M NaCl, 3 mM EDTA, 0.005% Surfactant P20, Biacore, Freiburg/Germany). […] IFNG mutation series compounds were immobilised at a concentration of 25 nM, 80 s contact time and 10 μL/min. Immobilisation levels up to 450 resonance units (RU) were used. Subsequently, decreasing concentrations (800-3.13 nM) of Fc (kih)-IFNGR1 monomer or Fc (kih)-IFNGR1/2 heterodimer were injected as a second analyte with a flow rate of 30 μL/min over 120 seconds and dissociation was monitored for 500 s. Bulk refractive index differences were corrected for by subtracting the response obtained in a reference flow cell, where no protein was immobilised. The affinity constants were derived from the rate constants by fitting to a 1:1 Langmuir binding.
(§2) To measure binding affinities, compounds of the mutation series were immobilised in the flow cell. As a second analyte Fc (kih)-IFNGR1 monomer or Fc (kih)-IFNGR1/R2 heterodimer were passed through the flow cell and binding affinities (KD) were calculated based on observed association and dissociation constants. Already single point mutations reduced the apparent binding affinities towards the receptors compared to the compound with C-terminal KRKRP.
B1 showed a Kd of 204 nM.
B2 was tested, and the Kd was 683 nM.
B3 gave a Kd of 486 nM.
For B4, the Kd was 950 nM.
Work on B5 yielded a Kd of 1080 nM.
B6 showed a Kd of 1150 nM.

What follows are binders tested against T2, Fc (kih)-IFNGR1 monomer (P1AF7104) (assay: SPR, compound immobilised, Fc(kih)-IFNGR1 monomer as analyte; apparent affinity).
Procedure: as §1, §2
B1 showed a Kd of 3600 nM.
B2 showed a Kd of 1420 nM.
Work on B3 yielded a Kd of 977 nM.
B4 gave a Kd of 2710 nM.
Binder B5 has a Kd of 3160 nM.
Work on B6 yielded a Kd of 3260 nM.

Reference: US20250333542A1 (Hoffmann-La Roche, published 2025)
